# Experimental data: paper PMC4336329 (PLoS ONE, 2015)
# About 2,200 (0.71%) of roughly 310,000 compounds showed an effect of 50% or more. Effects have a minus sign here. This is one part of the list.
# Target: human ether-à-go-go-related gene (hERG) potassium channel (human, UniProt Q12809)
# Experiment: primary screen, population patch clamp on CHO cells stably expressing hERG
# Chain of human ether-à-go-go-related gene (hERG) potassium channel (Q12809 whole entry, looked up): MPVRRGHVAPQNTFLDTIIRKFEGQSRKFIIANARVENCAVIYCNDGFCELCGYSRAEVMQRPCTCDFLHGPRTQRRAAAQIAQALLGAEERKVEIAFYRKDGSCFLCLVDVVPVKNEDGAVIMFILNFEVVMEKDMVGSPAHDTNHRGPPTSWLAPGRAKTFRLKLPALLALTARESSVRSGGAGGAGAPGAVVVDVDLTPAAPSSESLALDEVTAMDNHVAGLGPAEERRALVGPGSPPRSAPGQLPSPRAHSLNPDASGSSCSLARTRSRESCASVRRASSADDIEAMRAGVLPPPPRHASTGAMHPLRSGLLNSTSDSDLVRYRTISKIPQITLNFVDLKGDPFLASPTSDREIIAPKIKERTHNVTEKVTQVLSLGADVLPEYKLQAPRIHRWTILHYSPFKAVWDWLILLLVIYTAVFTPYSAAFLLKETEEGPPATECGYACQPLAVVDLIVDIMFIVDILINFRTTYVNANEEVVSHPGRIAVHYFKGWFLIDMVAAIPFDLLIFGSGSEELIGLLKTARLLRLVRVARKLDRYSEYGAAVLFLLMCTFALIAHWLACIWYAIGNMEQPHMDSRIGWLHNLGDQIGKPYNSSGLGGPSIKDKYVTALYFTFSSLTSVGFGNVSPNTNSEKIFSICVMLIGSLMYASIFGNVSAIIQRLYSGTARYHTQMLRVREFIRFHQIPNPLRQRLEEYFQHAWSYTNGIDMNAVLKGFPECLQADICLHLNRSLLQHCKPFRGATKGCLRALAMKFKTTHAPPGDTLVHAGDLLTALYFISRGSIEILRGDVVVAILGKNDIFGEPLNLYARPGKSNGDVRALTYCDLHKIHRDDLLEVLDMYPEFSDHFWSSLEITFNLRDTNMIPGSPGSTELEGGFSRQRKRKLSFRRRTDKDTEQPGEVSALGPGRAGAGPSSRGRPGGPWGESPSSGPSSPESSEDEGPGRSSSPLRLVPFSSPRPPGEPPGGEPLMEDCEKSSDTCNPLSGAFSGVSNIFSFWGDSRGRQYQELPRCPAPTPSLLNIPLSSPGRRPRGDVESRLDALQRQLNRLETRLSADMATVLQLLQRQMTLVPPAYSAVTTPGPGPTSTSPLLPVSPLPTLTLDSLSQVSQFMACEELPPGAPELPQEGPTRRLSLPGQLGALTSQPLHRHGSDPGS
row,Compound,"hERG current change (%, negative = inhibition) at 1uM [%]"
1,CC1CN(S(=O)(=O)c2cccc(C(F)(F)F)c2)CC(C)O1 (stereo not drawn),11.8
2,CCOC(=O)COc1ccc(S(=O)(=O)NCc2ccco2)cc1,11.1
3,COc1cccc(C(=O)NCC(=O)N/N=C(C)\C=C\c2ccccc2)c1,5.1
4,COC(=O)Cc1[nH]n(-c2nc3ccccc3s2)c(=O)c1C(C)=Nc1ccc(OC)cc1,11.1
5,Cc1onc(-c2ccccc2)c1C(=O)Nc1ccc(S(=O)(=O)NC(C)(C)C)cc1,10.4
6,CC(C(=O)Nc1cccc([N+](=O)[O-])c1)N(c1ccccc1)S(C)(=O)=O (stereo not drawn),5.26
7,Cc1cc(N(CCO)CCO)ccc1N=Nc1cc(F)ccc1F,1.05
8,COC(=O)C1=C(c2ccc(OCc3ccccc3)cc2)C[C@@H]2CC[C@H]1N2C(=O)NCc1ccc(OC)c(OC)c1,16.3
9,COc1ccc(-n2c(/C=C3/C(=O)Nc4ccccc43)nc3ccccc3c2=O)cc1,10.6
10,Cc1ccc2c(c1)N1C(=O)c3ccccc3C1C1=C(CC(C)(C)CC1=O)N2 (stereo not drawn),7.79
11,Cc1cc(C)n(-c2ccc(C(=O)OCC(=O)Nc3cc(Cl)ccc3[N+](=O)[O-])cc2)n1,0.679
12,CCOC(=O)N/N=C(\C)c1ccc(Oc2ncccn2)cc1,17.3
13,O=C(O)CSCC(=O)N1CCN(Cc2ccc3c(c2)OCO3)CC1,15.5
14,COCCCNC(=O)c1ccc2c(=O)n(CC3CCCO3)c(=S)[nH]c2c1 (stereo not drawn),-7.96
15,O=C(O)[C@@H]1Cc2ccccc2N1,12.5
16,O=C1c2ccccc2C(=O)N1CCn1c(=O)oc2ccccc21,16.1
17,CC(=O)c1ccc(NC(=O)N[C@@H](Cc2ccccc2)C(=O)O)cc1,2.33
18,CCC(=O)Nc1ccc(C(=O)CSc2nc3ccccc3[nH]2)cc1,10.3
19,Cc1ccc(/C=N/n2c(C3CCCCC3)n[nH]c2=S)s1,13.9
20,O=C(O)/C=C\C(=O)Nc1ccc(OCc2ccccc2)cc1,0.776
21,O=C1NC(=S)S/C1=C\c1ccc(SCc2ccccc2)o1,14.5
22,O=C(NCC1CCCO1)c1ccc(NS(=O)(=O)c2cccs2)cc1 (stereo not drawn),8.92
23,CC(Oc1ccccc1F)c1nnc(SCC(=O)c2c(N)n(C3CC3)c(=O)[nH]c2=O)o1 (stereo not drawn),12.8
24,N=c1c(C(=O)NCCc2ccccc2)cc2c(=O)n3ccccc3nc2n1CCCN1CCOCC1,-77.8
